Results taken from patent publication US11618753B2 (priority 2018, dated 2023).

The molecules below were run on MLKL phosphorylation, HT29-L23 human colorectal adenocarcinoma cells (assay: cells). Conditions: read-out: pMLKL HCS Cell Assay (IC50, uM).
`CC(C(=O)N1C[C@H](F)[C@H](NC(=O)c2cc(-c3cc(C(F)(F)F)c4c(N)ncnn34)ccc2OCC(F)(F)F)C1)C(F)(F)F` (stereo partly drawn) [Example 1077, 5-[4-amino-5-(trifluoromethyl)pyrrolo[2,1-f][1,2,4]triazin-7-yl]-N-[(3R,4S)-4-fluoro-1-(3,3,3-trifluoro-2-methylpropanoyl)pyrrolidin-3-trifluoroethoxy)benzamide] was tested, and the IC50 was 0.227 µM.
`Nc1ncnn2c(-c3ccc(OCC(F)(F)F)c(C(=O)N[C@@H]4CN(C(=O)CC(O)(C(F)(F)F)C(F)(F)F)C[C@@H]4F)c3)cc(C(F)(F)F)c12` [Example 1078, 5-[4-amino-5-(trifluoromethyl)pyrrolo[2,1-f][1,2,4]triazin-7-yl]-N-[(3R,4S)-4-fluoro-1-[4,4,4-trifluoro-3-hydroxy-3-(trifluoromethyl)butanoyl]pyrrolidin-3-yl]-2-(2,2,2-trifluoroethoxy)benzamide] gave an IC50 of 0.03 µM.
Molecule `Nc1ncnn2c(-c3ccc(OC(F)F)c(C(=O)N[C@@H]4CN(C(=O)C5(F)CC5)C[C@@H]4F)c3)cc(C(F)(F)F)c12` [Example 1079, 5-[4-amino-5-(trifluoromethyl)pyrrolo[2,1-f][1,2,4]triazin-7-yl]-2-(difluoromethoxy)-N-[(3R,4S)-4-fluoro-1-(1-fluorocyclopropanecarbonyl)pyrrolidin-3-yl]benzamide] has an IC50 of 0.04 µM.
`C[C@@](O)(C(=O)N1C[C@H](F)[C@H](NC(=O)c2cc(-c3cc(C(F)(F)F)c4c(N)ncnn34)ccc2OC(F)F)C1)C(F)(F)F` [Example 1080, 5-[4-amino-5-(trifluoromethyl)pyrrolo[2,1-f][1,2,4]triazin-7-yl]-2-(difluoromethoxy)-N-[(3R,4S)-4-fluoro-1-[(2R)-3,3,3-trifluoro-2-hydroxy-2-methylpropanoyl]pyrrolidin-3-yl]benzamide] gave an IC50 of 0.0071 µM.
Work on `Nc1ncnn2c(-c3ccc(OC(F)F)c(C(=O)N[C@@H]4CN(C(=O)CC(C(F)(F)F)C(F)(F)F)C[C@@H]4F)c3)cc(C(F)(F)F)c12` [Example 1081, 5-[4-amino-5-(trifluoromethyl)pyrrolo[2,1-f][1,2,4]triazin-7-yl]-2-(difluoromethoxy)-N-[(3R,4S)-4-fluoro-1-[4,4,4-trifluoro-3-(trifluoromethyl)butanoyl]pyrrolidin-3-yl]benzamide] yielded an IC50 of 0.0072 µM.
For `Nc1ncnn2c(-c3ccc(OC(F)F)c(C(=O)N[C@@H]4CN(C(=O)CC(F)(F)F)C[C@@H]4F)c3)cc(C(F)(F)F)c12` [Example 1082, 5-[4-amino-5-(trifluoromethyl)pyrrolo[2,1-f][1,2,4]triazin-7-yl]-2-(difluoromethoxy)-N-[(3R,4S)-4-fluoro-1-(3,3,3-trifluoropropanoyl)pyrrolidin-3-yl]benzamide], the IC50 was 0.03 µM.
`CC(CC(=O)N1C[C@H](F)[C@H](NC(=O)c2cc(-c3cc(C(F)(F)F)c4c(N)ncnn34)ccc2OC(F)F)C1)C(F)(F)F` (stereo partly drawn) [Example 1084, 5-[4-amino-5-(trifluoromethyl)pyrrolo[2,1-f][1,2,4]triazin-7-yl]-2-(difluoromethoxy)-N-[(3R,4S)-4-fluoro-1-(4,4,4-trifluoro-3-methylbutanoyl)pyrrolidin-3-yl]benzamide] showed an IC50 of 0.021 µM.
`CC(C)(O)C(=O)N1C[C@H](F)[C@H](NC(=O)c2cc(-c3cc(C(F)(F)F)c4c(N)ncnn34)ccc2OC(F)F)C1` [Example 1085, 5-[4-amino-5-(trifluoromethyl)pyrrolo[2,1-f][1,2,4]triazin-7-yl]-2-(difluoromethoxy)-N-[(3R,4S)-4-fluoro-1-(2-hydroxy-2-methylpropanoyl)pyrrolidin-3-yl]benzamide] showed an IC50 of 0.05 µM.
`Nc1ncnn2c(-c3ccc(OC(F)F)c(C(=O)N[C@@H]4CN(C(=O)C5CC5(F)F)C[C@@H]4F)c3)cc(C(F)(F)F)c12` (stereo partly drawn) [Example 1086, 5-[4-amino-5-(trifluoromethyl)pyrrolo[2,1-f][1,2,4]triazin-7-yl]-N-[(3R,4S)-1-(2,2-difluorocyclopropanecarbonyl)-4-fluoropyrrolidin-3-yl]-2-(difluoromethoxy)benzamide] showed an IC50 of 0.042 µM.
In the case of `Nc1ncnn2c(-c3ccc(OC(F)F)c(C(=O)N[C@@H]4CN(C(=O)CC(O)(C(F)(F)F)C(F)(F)F)C[C@@H]4F)c3)cc(C(F)(F)F)c12` [Example 1088, 5-[4-amino-5-(trifluoromethyl)pyrrolo[2,1-f][1,2,4]triazin-7-yl]-2-(difluoromethoxy)-N-[(3R,4S)-4-fluoro-1-[4,4,4-trifluoro-3-hydroxy-3-(trifluoromethyl)butanoyl]pyrrolidin-3-yl]benzamide], the IC50 is reported as 0.0098 µM.
With `Nc1ncnn2c(-c3ccc(OC(F)F)c(C(=O)N[C@@H]4CN(C(=O)c5ccccc5F)C[C@@H]4F)c3)cc(C(F)(F)F)c12` [Example 1089, 5-[4-amino-5-(trifluoromethyl)pyrrolo[2,1-f][1,2,4]triazin-7-yl]-2-(difluoromethoxy)-N-[(3R,4S)-4-fluoro-1-(2-fluorobenzoyl)pyrrolidin-3-yl]benzamide] the IC50 was 0.044 µM.
In the case of `Nc1ncnn2c(-c3ccc(OC(F)F)c(C(=O)N[C@@H]4CN(C(=O)C5CCC(F)(F)CC5)C[C@@H]4F)c3)cc(C(F)(F)F)c12` [Example 1090, 5-[4-amino-5-(trifluoromethyl)pyrrolo[2,1-f][1,2,4]triazin-7-yl]-N-[(3R,4S)-1-(4,4-difluorocyclohexanecarbonyl)-4-fluoropyrrolidin-3-yl]-2-(difluoromethoxy)benzamide], the IC50 is reported as 0.041 µM.
With `CC(O)(CC(=O)N1C[C@H](F)[C@H](NC(=O)c2cc(-c3cc(C(F)(F)F)c4c(N)ncnn34)ccc2OC(F)F)C1)C(F)(F)F` (stereo partly drawn) [Example 1091, 5-[4-amino-5-(trifluoromethyl)pyrrolo[2,1-f][1,2,4]triazin-7-yl]-2-(difluoromethoxy)-N-[(3R,4S)-4-fluoro-1-(4,4,4-trifluoro-3-hydroxy-3-methylbutanoyl)pyrrolidin-3-yl]benzamide] the IC50 was 0.017 µM.
Work on `CC(C)(F)C(=O)N1C[C@H](F)[C@H](NC(=O)c2cc(-c3cc(C(F)(F)F)c4c(N)ncnn34)ccc2OC(F)F)C1` [Example 1092, 5-[4-amino-5-(trifluoromethyl)pyrrolo[2,1-f][1,2,4]triazin-7-yl]-2-(difluoromethoxy)-N-[(3R,4S)-4-fluoro-1-(2-fluoro-2-methylpropanoyl)pyrrolidin-3-yl]benzamide] yielded an IC50 of 0.035 µM.
Molecule `CC(C(=O)N1C[C@H](F)[C@H](NC(=O)c2cc(-c3cc(C(F)(F)F)c4c(N)ncnn34)ccc2OC(F)F)C1)C(F)(F)F` (stereo partly drawn) [Example 1093, 5-[4-amino-5-(trifluoromethyl)pyrrolo[2,1-f][1,2,4]triazin-7-yl]-2-(difluoromethoxy)-N-[(3R,4S)-4-fluoro-1-(3,3,3-trifluoro-2-methylpropanoyl)pyrrolidin-3-yl]benzamide] has an IC50 of 0.036 µM.
`Nc1ncnn2c(-c3ccc(OC(F)F)c(C(=O)N[C@@H]4CN(C(=O)C5CCC(F)(F)C5)C[C@@H]4F)c3)cc(C(F)(F)F)c12` (stereo partly drawn) [Example 1094, 5-[4-amino-5-(trifluoromethyl)pyrrolo[2,1-f][1,2,4]triazin-7-yl]-N-[(3R,4S)-1-(3,3-difluorocyclopentanecarbonyl)-4-fluoropyrrolidin-3-yl]-2-(difluoromethoxy)benzamide] was tested, and the IC50 was 0.021 µM.
In the case of `Nc1ncnn2c(-c3ccc(OC(F)F)c(C(=O)N[C@@H]4CN(C(=O)C5CC(F)(F)C5)C[C@@H]4F)c3)cc(C(F)(F)F)c12` [Example 1095, 5-[4-amino-5-(trifluoromethyl)pyrrolo[2,1-f][1,2,4]triazin-7-yl]-N-[(3R,4S)-1-(3,3-difluorocyclobutanecarbonyl)-4-fluoropyrrolidin-3-yl]-2-(difluoromethoxy)benzamide], the IC50 is reported as 0.013 µM.
For `CCC(O)(C(=O)N1C[C@H](F)[C@H](NC(=O)c2cc(-c3cc(C(F)(F)F)c4c(N)ncnn34)ccc2OC(F)F)C1)C(F)(F)F` (stereo partly drawn) [Example 1096, 5-[4-amino-5-(trifluoromethyl)pyrrolo[2,1-f][1,2,4]triazin-7-yl]-2-(difluoromethoxy)-N-[(3R,4S)-4-fluoro-1-[2-hydroxy-2-(trifluoromethyl)butanoyl]pyrrolidin-3-yl]benzamide], the IC50 was 0.025 µM.
`CCOc1ccc(-c2cc(C(F)(F)F)c3c(N)ncnn23)cc1C(=O)N[C@@H]1CN(C(=O)CC(F)(F)F)C[C@@H]1F` [Example 1097, 5-[4-amino-5-(trifluoromethyl)pyrrolo[2,1-f][1,2,4]triazin-7-yl]-2-ethoxy-N-[(3R,4S)-4-fluoro-1-(3,3,3-trifluoropropanoyl)pyrrolidin-3-yl]benzamide] was tested, and the IC50 was 0.31 µM.
With `CCOc1ccc(-c2cc(C(F)(F)F)c3c(N)ncnn23)cc1C(=O)N[C@@H]1CN(C(=O)CC(C)(O)C(F)(F)F)C[C@@H]1F` (stereo partly drawn) [Example 1098, 5-[4-amino-5-(trifluoromethyl)pyrrolo[2,1-f][1,2,4]triazin-7-yl]-2-ethoxy-N-[(3R,4S)-4-fluoro-1-(4,4,4-trifluoro-3-hydroxy-3-methylbutanoyl)pyrrolidin-3-yl]benzamide] the IC50 was 0.026 µM.
Molecule `CCOc1ccc(-c2cc(C(F)(F)F)c3c(N)ncnn23)cc1C(=O)N[C@@H]1CN(C(=O)c2ccccc2F)C[C@@H]1F` [Example 1099, 5-[4-amino-5-(trifluoromethyl)pyrrolo[2,1-f][1,2,4]triazin-7-yl]-2-ethoxy-N-[(3R,4S)-4-fluoro-1-(2-fluorobenzoyl)pyrrolidin-3-yl]benzamide] has an IC50 of 0.021 µM.
With `CCOc1ccc(-c2cc(C(F)(F)F)c3c(N)ncnn23)cc1C(=O)N[C@@H]1CN(C(=O)C(C)(C)O)C[C@@H]1F` [Example 1100, 5-[4-amino-5-(trifluoromethyl)pyrrolo[2,1-f][1,2,4]triazin-7-yl]-2-ethoxy-N-[(3R,4S)-4-fluoro-1-(2-hydroxy-2-methylpropanoyl)pyrrolidin-3-yl]benzamide] the IC50 was 0.247 µM.
In the case of `CCOc1ccc(-c2cc(C(F)(F)F)c3c(N)ncnn23)cc1C(=O)N[C@@H]1CN(C(=O)CC(C)C(F)(F)F)C[C@@H]1F` (stereo partly drawn) [Example 1101, 5-[4-amino-5-(trifluoromethyl)pyrrolo[2,1-f][1,2,4]triazin-7-yl]-2-ethoxy-N-[(3R,4S)-4-fluoro-1-(4,4,4-trifluoro-3-methylbutanoyl)pyrrolidin-3-yl]benzamide], the IC50 is reported as 0.0071 µM.
